According to PMC6919601, “Identification of Plasmodium dipeptidyl aminopeptidase allosteric inhibitors by high throughput screening” (PLoS ONE, 2019):
About 230 (0.21%) of roughly 110,000 compounds showed an effect of 50% or more. Some of the results follow.

These molecules were tested against DPAP1 (Plasmodium falciparum, UniProt Q8IIJ9) (assay: primary screen, percent inhibition; read by cleavage of a fluorogenic dipeptide substrate; higher = more effect of the substance).
Set-up: species or system P. falciparum D10 trophozoite lysates; single well
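Note: 30 min substrate incubation versus DMSO and 10 µM JCP410 controls.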

DPAP1, sequence (Q8IIJ9 whole entry, looked up): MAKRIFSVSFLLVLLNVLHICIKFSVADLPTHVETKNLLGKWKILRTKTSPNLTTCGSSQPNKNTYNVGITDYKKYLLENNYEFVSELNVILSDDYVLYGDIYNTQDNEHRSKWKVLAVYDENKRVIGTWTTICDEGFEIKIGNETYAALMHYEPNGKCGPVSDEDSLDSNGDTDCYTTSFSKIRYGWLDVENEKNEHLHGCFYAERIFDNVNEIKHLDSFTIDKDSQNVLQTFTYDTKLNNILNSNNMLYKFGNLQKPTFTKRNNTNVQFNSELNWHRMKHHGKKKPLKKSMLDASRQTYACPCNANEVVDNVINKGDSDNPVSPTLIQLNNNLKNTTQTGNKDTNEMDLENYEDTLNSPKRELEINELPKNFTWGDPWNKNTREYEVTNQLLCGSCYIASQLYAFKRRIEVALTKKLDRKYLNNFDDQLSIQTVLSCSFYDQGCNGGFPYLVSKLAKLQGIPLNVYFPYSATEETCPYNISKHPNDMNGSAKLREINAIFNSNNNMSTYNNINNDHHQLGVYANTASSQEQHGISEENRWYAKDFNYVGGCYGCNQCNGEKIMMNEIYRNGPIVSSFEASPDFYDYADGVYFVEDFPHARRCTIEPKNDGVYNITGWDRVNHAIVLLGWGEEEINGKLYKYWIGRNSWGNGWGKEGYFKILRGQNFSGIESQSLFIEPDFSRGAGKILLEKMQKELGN

| SMILES | % Inhibition @ 10 uM |
| --- | --- |
| COc1ccc(N(CC(=O)Nc2ccc(C)c(C)c2)S(=O)(=O)c2ccccc2)cc1 | -4.13% |
| CS(=O)(=O)c1ccc(-c2nnn(CC(=O)O)n2)cc1 | 3.72% |
| COc1ccc2cc3cc(C(=O)N4CCCCC4C)oc3nc2c1 (stereo not shown) | -1.54% |
| Cc1nc2scc(C)n2c(=O)c1S(=O)(=O)NCc1ccc(F)cc1 | -2.41% |
| COc1cccc(Cn2c(NCC(C)C)nc3c2c(=O)n(C)c(=O)n3C)c1 | -7.08% |
| Cn1c(=O)c2c(nc(N3CCc4ccccc4C3)n2CCSc2ncccn2)n(C)c1=O | 2.41% |
| COc1ccc(CN2CCN(S(=O)(=O)c3ccc(Cl)cc3)CC2)cc1 | 3.49% |
| COP(=O)(OC)C(Nc1ccc(Cl)cc1)c1ccc(Br)cc1 (stereo not shown) | -2.51% |
| COc1cc2c(cc1OC)C(C)N(C(=O)c1cc(S(=O)(=O)N3CCCC3)cn1C)CC2 (stereo not shown) | -2.79% |
| Cc1[nH]c2ccccc2c1CCNC(=O)c1cc(F)c(F)cc1Cl | 0.161% |
| CCOC(=O)N1CCN(C(=O)c2ccc3c(c2)sc2nc(-c4cccc(OC)c4)cn23)CC1 | 11.8% |
| COc1cccc(-c2nnc3n2N=C(c2ccc(O)c(O)c2)CS3)c1 | -1.52% |
| Oc1nc(Cc2ccccc2)nc2c1C1(CCCC1)Cc1ccccc1-2 | -7.19% |
| O=C1CC(N2CCN(C/C=C/c3ccccc3)CC2)C(=O)N1c1ccccc1 (stereo not shown) | 8.67% |
| Cc1ccc(C)c(N2C(=O)C3C4C=CC(O4)C3C2=O)c1 (stereo not shown) | -2.56% |
| CCN(Cc1ccccc1)C(=O)c1cc(-c2ccc(C)c(C)c2)[nH]n1 | -2.18% |
| CCOC(=O)c1c(-c2ccccc2)csc1NC(=O)Cc1coc2ccc(OC)cc12 | 6.7% |
| N#Cc1c(NC(=S)NC(=O)c2ccco2)sc2c1CCC2 | 3.32% |
| Cc1cc(C)nc(NS(=O)(=O)c2ccc(NC(=O)COc3ccc(Cl)cc3Cl)cc2)n1 | 0.188% |
| CCOC(=O)Nc1nnc(-c2ccc(Br)cc2)s1 | -0.597% |
| COc1cc2c(cc1OC)C(c1cccc(F)c1)N(C(C)=O)CC2 (stereo not shown) | -2.32% |
| CC(C)(C)c1ccc(C(=O)NCCc2csc3nc(-c4ccccc4)nn23)cc1 | 10.8% |
| CCNC(=O)/C(C#N)=C/c1c(Oc2ccc(CC)cc2)nc2c(C)cccn2c1=O | 5.21% |
| CCSc1nc(N2CCOCC2)c2c(c1C#N)CC(C)(C)OC2 | -2.91% |
| CC(C)CCOC(=O)NC(C(F)(F)F)C(F)(F)F | -2.44% |

| SMILES | % Inhibition @ 10 uM |
| --- | --- |
| CCOc1ccc(OCC)c(C2C(C#N)=C(N)Oc3cc(O)ccc32)c1 (stereo not shown) | -3.49% |
| CC(C)c1ccccc1NC(=O)CN(c1cc(C(F)(F)F)ccc1Cl)S(C)(=O)=O | -7.56% |
| Oc1ncnc2[nH]c(N3CCNCC3)nc12 | -0.711% |
| CCN1CCN(CC(=O)n2c(C)c(C)c3ccccc32)CC1 | -1.72% |
| CC(C)(C)/C(O)=C/C(=N)c1cccnc1 | 2.8% |
| CCc1c(CN(Cc2ccccc2)C(C)C)csc1C | -0.999% |
| CC(C)N(Cc1nc(-c2ccccc2)no1)C(=O)c1cccs1 | -3.06% |
| c1coc(CNc2nc3ccccc3n2CCN2CCOCC2)c1 | 0.843% |
| O=C1C2C3CCC(C3)C2C(=O)N1c1cccc(Cl)c1 (stereo not shown) | -0.996% |
| O=C(Nc1ccc(S(=O)(=O)N2CCc3ccccc32)cc1)c1ccc(Br)o1 | 0.446% |
| Cc1ccccc1CCNC(=O)C(C)n1nc(C)c2c(C)n(-c3ccccc3)nc2c1=O (stereo not shown) | -0.846% |
| CCc1cccc(NC(=O)Cc2ccc(OC)c(OC)c2)c1 | -1.89% |
| c1coc(CNc2ncnc3c2nc2n3CCCCC2)c1 | -4.89% |
| COc1ccc(C(=O)Nc2cccc(Cl)c2C)cc1Br | -3.96% |
| CC(=O)Nc1ccc(Oc2ccccc2)cc1 | 2.13% |
| Cc1cccc(NC(=O)C2C3C=CC(C3)C2C(=O)O)n1 (stereo not shown) | -4.21% |
| Cc1ccc(CNC(=O)c2nnn(-c3cccc(C(F)(F)F)c3)c2N)cc1 | 6.81% |
| CC1=C(c2ccc(C)c(C)c2)S(=O)(=O)N(Cc2ccc(C(=O)NCCc3cccs3)cc2)C1=O | 6.31% |
| Clc1nc2ccccc2c2[nH]c3ccccc3c12 | 5.97% |
| COc1ccc(OC)c2c1CCC(NC(C)=O)C2=O (stereo not shown) | -2.54% |
| NC1=NC(=O)/C(=C\c2ccccc2Sc2ccc(Cl)cc2)S1 | 2.6% |
| CC(C)C[C@H](NC(=O)c1cccc(-c2csc(N=C(N)N)n2)c1)C(=O)NCC#N | -2.35% |
| Cc1c(C(=O)N2CCOCC2)oc2c1-c1nn(CC(=O)NC3CCCc4ccccc43)cc1CC2 (stereo not shown) | -6.25% |
| NC(=O)C1CCN(Cc2ccc(Cl)cc2Cl)CC1 | -3.17% |
| COc1ccccc1CNCc1c(C(=O)O)c(C)n(Cc2ccc(F)cc2Cl)c1C | -9.31% |

| SMILES | % Inhibition @ 10 uM |
| --- | --- |
| CCOC(=O)c1cnc2cc(C(F)(F)F)ccc2c1N(C)Cc1ccccc1 | 3.54% |
| COc1ccc(S(=O)(=O)N2CCc3ccccc32)cc1 | -4.3% |
| O=C([C@@H](c1ccccc1)N1Cc2ccccc2C1=O)N1CCOCC1 | -2.25% |
| O=C(CCc1nc(-c2cccs2)no1)NCc1ccc(F)cc1Cl | -3.39% |
| Cc1cc(C)n2nc(CCc3ccccc3)nc2n1 | -4.19% |
| COC(=O)/C(O)=C/C1=NC(C)(C)Cc2ccccc21 | 2.7% |
| COC(=O)c1cc2c(s1)CS(=O)C2 (stereo not shown) | 3.04% |
| Cc1cc(C)cc(NS(=O)(=O)c2ccc(NC(=O)CCC(=O)O)cc2)c1 | -2.42% |
| NS(=O)(=O)c1ccc(NC(=O)c2sc3ccccc3c2Cl)cc1 | -6.92% |
| CCOC(=O)NC1CS(=O)(=O)CC1N (stereo not shown) | 0.884% |
| CC(C)N(CCC#N)S(=O)(=O)c1ccc(-c2ccc([N+](=O)[O-])cc2)cc1 | 1.9% |
| N#CCNC(=O)C(CSC(=O)OCc1ccccc1)NC(=O)OCc1ccccc1 (stereo not shown) | -1.41% |
| O=C1C(Cl)=C(N2CCCCC2)C(=O)N1Cc1ccccc1 | -2.46% |
| CC1CN(CCCc2ccccc2)CC(C)O1 (stereo not shown) | 1.67% |
| Cc1cccc(C)c1NC(=O)c1ccc(Br)o1 | -2.6% |
| CCN1CCN(Cc2nc3c(c(=O)n(C)c(=O)n3C)n2CCCc2ccccc2)CC1 | -1.65% |
| COCCCNC(=O)c1c(NC(=O)c2cc(=O)c3cc(Cl)ccc3o2)sc2c1CCCC2 | 3.51% |
| O=C(/C=C/c1ccccc1)Nc1ccc(OC(F)(F)F)cc1 | -1.59% |
| COc1cc(NC(=O)c2c(OC)cccc2OC)c(OC)cc1Cl | 1.67% |
| CC1=C(C)CC2C(=O)C3=C(C(=O)C2C1)C1c2ccccc2C3c2ccccc21 (stereo not shown) | 1.12% |
| COc1ccc(OC)c(/C=C/C(=O)c2ccc(OC)cc2OC)c1 | 7.33% |
| COCCNC(=O)c1ccc(CS(=O)(=O)c2cccc(C(F)(F)F)c2)o1 | -3.09% |
| OCCOCCN1CCN(Cc2cc(Br)cs2)CC1 | 2.65% |
| CCOc1ccc(-c2cc(C(=O)N3CCOCC3)c3c(-c4ccc(C)cc4)[nH]nc3n2)cc1 | -2.28% |
| N#Cc1ccc(NC(=O)CSc2ncn(-c3ccccc3)n2)cc1 | 5.09% |

| SMILES | % Inhibition @ 10 uM |
| --- | --- |
| COc1ccccc1N1CCN(C(=O)/C=C/c2ccccc2)CC1 | -0.127% |
| Cc1cc(-c2ccc([N+](=O)[O-])cc2)nc2ccc3ccccc3c12 | -0.239% |
| O=C1CC(c2cccc([N+](=O)[O-])c2)NC(=S)N1 (stereo not shown) | -13% |
| CCCCNC(=O)c1cc(C)nn1-c1ccccc1 | -0.138% |
| O=C(NCc1cccs1)C1CC(=O)N(c2ccc(Cl)cc2)C1 (stereo not shown) | -4.7% |
| CCCSc1nc(=O)c2c(n1C)NC(=O)CC2c1cccc(O)c1 (stereo not shown) | -1.11% |
| O=C1NC(=O)N(C2CCCCC2)C(=O)/C1=C/c1cccc(O)c1 | -3.04% |
| CC(C)Cc1ccc2c(n1)sc1c(N)ncnc12 | -2.97% |
| COc1cc(C(=O)Nc2nonc2-c2ccc(C)cc2)cc(OC)c1OC | -2.84% |
| Cn1cc(NC(=O)N(Cc2ccco2)CC2CCCO2)c2ccccc2c1=O (stereo not shown) | 4.91% |
| CC1=C(C(=O)OCCOc2ccccc2)C(c2cc3c(cc2Br)OCO3)CC(=O)N1 (stereo not shown) | 3.11% |
| C=C(Br)Cn1c(CCNC(=O)c2ccco2)nc2ccccc21 | 2.02% |
| O=S(=O)(c1ccc(Br)cc1)N1CCc2[nH]ncc2C1 | -3.1% |
| Cc1nc2c(-c3ccc(F)cc3)c(C)nn2c(C)c1CCC(=O)N1CCN(c2ccccn2)CC1 | 2.93% |
| Cc1ccc(-c2c(O)c(=O)/c2=N\CCCN(C)Cc2ccccc2)cc1 | 5.39% |
| Cc1ccc(NC(=O)C2CC=CCC2C(=O)O)cc1 (stereo not shown) | 0.35% |
| CCOc1ccccc1-n1nnc(-c2nc(-c3ccc(Cl)cc3)no2)c1N | -3.88% |
| CCOC(=O)N1CCC(N2CCCC(C(=O)N3CCCC3)C2)CC1 (stereo not shown) | 2.25% |
| COCCNC(=O)Cn1nc(-c2ccc(Cl)cc2)c2ccccc2c1=O | -3.96% |
| CCN(CC)CCCNC(=O)C1CCN(c2ncnc3c2sc2cccc(F)c23)CC1 | -2.37% |
| CC1CCN(C(=O)CCc2nnc3n(Cc4ccc(Cl)cc4)c(=O)c4ccccc4n23)CC1 | 4.16% |
| CNC(=O)Cn1ncc2c3ccccc3n(Cc3cc(C)ccc3C)c2c1=O | 1.8% |
| COc1ccc(NC(=O)c2c(OC)cccc2OC)c(OC)c1 | 2.41% |
| COc1cccc(CCNC2CC(=O)N(c3ccccc3)C2=O)c1 (stereo not shown) | -5.1% |
| C=CCOC(=O)c1sc(N2C(=O)c3oc4ccccc4c(=O)c3C2c2cccc(OC)c2)nc1C (stereo not shown) | 2.16% |
